These results are taken from publication PMC4336329 (PLoS ONE, 2015).

Hit rate of the full screen: of about 310,000 compounds, about 14,000 (4.5%) showed an effect of 50% or more. Effects have a minus sign here. The list shows a part of the results.
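Note: peak tail current of the secondary pulse compared with the same well before compound.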

Sequence of human ether-à-go-go-related gene (hERG) potassium channel (Q12809 whole entry, looked up): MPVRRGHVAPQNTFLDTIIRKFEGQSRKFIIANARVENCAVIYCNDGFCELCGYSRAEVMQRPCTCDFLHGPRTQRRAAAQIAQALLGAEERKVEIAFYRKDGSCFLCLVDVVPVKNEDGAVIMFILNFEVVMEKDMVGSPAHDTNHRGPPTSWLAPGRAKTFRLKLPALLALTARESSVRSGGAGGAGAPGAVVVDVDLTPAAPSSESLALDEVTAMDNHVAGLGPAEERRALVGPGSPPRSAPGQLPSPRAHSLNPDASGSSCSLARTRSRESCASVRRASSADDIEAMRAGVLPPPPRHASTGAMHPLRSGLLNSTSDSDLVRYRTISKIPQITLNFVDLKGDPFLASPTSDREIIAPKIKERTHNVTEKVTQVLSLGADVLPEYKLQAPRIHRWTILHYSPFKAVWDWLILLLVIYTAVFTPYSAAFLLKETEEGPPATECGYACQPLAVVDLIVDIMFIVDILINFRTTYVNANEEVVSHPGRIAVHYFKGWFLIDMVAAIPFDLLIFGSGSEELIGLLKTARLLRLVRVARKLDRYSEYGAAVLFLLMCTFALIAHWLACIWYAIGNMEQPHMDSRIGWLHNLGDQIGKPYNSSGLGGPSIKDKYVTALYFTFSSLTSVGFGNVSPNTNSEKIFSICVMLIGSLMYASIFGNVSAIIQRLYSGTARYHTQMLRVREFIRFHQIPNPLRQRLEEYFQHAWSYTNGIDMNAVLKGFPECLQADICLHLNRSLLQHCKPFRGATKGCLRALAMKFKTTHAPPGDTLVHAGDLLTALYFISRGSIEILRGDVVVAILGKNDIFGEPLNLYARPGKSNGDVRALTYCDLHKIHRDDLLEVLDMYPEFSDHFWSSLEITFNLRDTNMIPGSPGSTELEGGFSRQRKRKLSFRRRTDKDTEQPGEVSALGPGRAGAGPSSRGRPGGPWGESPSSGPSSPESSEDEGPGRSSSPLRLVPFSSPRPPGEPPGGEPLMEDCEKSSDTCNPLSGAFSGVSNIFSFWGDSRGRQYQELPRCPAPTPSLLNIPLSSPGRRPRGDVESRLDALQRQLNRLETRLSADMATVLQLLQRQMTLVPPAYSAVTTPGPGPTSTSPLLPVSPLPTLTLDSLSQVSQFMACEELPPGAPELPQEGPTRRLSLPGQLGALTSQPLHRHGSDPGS

This experiment concerns the target human ether-à-go-go-related gene (hERG) potassium channel (human, UniProt Q12809). The experiment in a line: primary screen, population patch clamp on CHO cells stably expressing hERG.
Take `COC(=O)[C@H](C)[C@H]1C[C@]1(C)[C@H](NC(=O)OCc1ccccc1)c1ccccc1`: the “hERG current change (%, negative = inhibition) at 10uM” value is on record as -6.4%.
As for `COCCN(C(=O)COC(=O)CCS(=O)(=O)c1ccccc1)c1c(N)n(Cc2ccccc2)c(=O)[nH]c1=O`, the figure is -11.1%; as for `CCOC(=O)C1=C(C)N(c2ccccc2)C(=O)/C1=C\c1ccc(O)c(OC)c1`, 1.82%; as for `CCCn1c(O)c(CN2CCCC(C)C2)c(C)c(C#N)c1=O` (stereo not shown), 3.04%.
Then `O=S(=O)(NCc1ccco1)c1ccc2c(c1)Cc1ccccc1-2`, with 7.28%.
As for `COCc1cc(C)nc2sc(C(=O)N3CCCCC3)c(N)c12`, the figure is 0.926%; as for `COc1cccc(-c2noc(C3CCCN(C(=O)c4ccc(F)cc4)C3)n2)c1` (stereo not shown), 0.304%.
In the case of `Cc1ccc(NC(=O)c2ccc(C)c(S(=O)(=O)N3CCOCC3)c2)nc1`, the “hERG current change (%, negative = inhibition) at 10uM” value is given as -6.9%.
For `COc1ccc(Cn2nnnc2C(c2cc3cc(C)ccc3[nH]c2=O)N2CCN(C)CC2)cc1` (stereo not shown), the “hERG current change (%, negative = inhibition) at 10uM” value is on record as -24.4%.
Turning to `CC(C)Cc1ccc(C#N)c(SCC(N)=O)n1`, the “hERG current change (%, negative = inhibition) at 10uM” value was -11.8%.
Then `CC(=O)c1ccc2c3c(cccc13)C(=O)N(CCc1ccccc1)C2=O`, with 13.4%; and `O=C(CN1C(=O)CCSc2ccc(S(=O)(=O)N3CCCC3)cc21)Nc1ccccc1Cl`, with 21.8%.
As to `O=C(c1cc(F)ccc1F)C1CCCN(C(=O)c2ccc3nccnc3c2)C1` (stereo not shown), the “hERG current change (%, negative = inhibition) at 10uM” value was -50.2%.
Consider `O=C(OCCCCN1C(=O)c2ccccc2C1=O)c1ccc(S(=O)(=O)N2CCCC2)cc1`, for which the “hERG current change (%, negative = inhibition) at 10uM” value is 17.3%.
As for `Cc1ccc(NC(=S)NCc2ccc3c(c2)OCO3)cc1C`, the figure is 0.695%; as for `CC(OC(=O)c1cc(S(=O)(=O)Nc2ccc(F)cc2)ccc1Cl)C(=O)Nc1ccc2c(c1)OCCO2` (stereo not shown), 1.47%; as for `CCCn1c(=O)[nH]c(=O)c2c(C(F)(F)F)cc(-c3ccc(C)cc3)nc21`, 28.2%.
Then `O=C(CCCc1ccccc1)Nc1ccccc1[N+](=O)[O-]`, with 2.99%; and `COc1cc(-c2noc(C3CCCN(C(=O)c4ccccc4)C3)n2)cc(OC)c1OC` (stereo not shown), with -8.12%.
With `CCCc1nc(SCC(=O)NNC(=O)c2ccc(OC)cc2)c2ccccc2n1`, the “hERG current change (%, negative = inhibition) at 10uM” value was -5.87%.
In the case of `c1ccc(-c2ccc3[nH]ccc3c2)cc1`, the “hERG current change (%, negative = inhibition) at 10uM” value is recorded as -6.46%.
As for `O=C(N/N=C/C1CCCCC1)c1cc(Cl)ccc1O`, the figure is -18.5%; as for `O=C(CNC(=O)c1ccc(S(=O)(=O)N2CCCC2)cc1)N/N=C/c1ccc(F)cc1`, 3.89%; as for `O=C1CN(C(=O)c2ccccc2C(=O)O)c2ccccc2N1`, 17.2%.
As for `CC(=O)c1cccc(NC(=O)CN2C(=O)c3ccccc3C2=O)c1`, the “hERG current change (%, negative = inhibition) at 10uM” value was 14.3%.
As for `O=C(CCC(=O)N1CCN(c2ccc(F)cc2)CC1)N1CCN(c2ccc(F)cc2)CC1`, the “hERG current change (%, negative = inhibition) at 10uM” value is -43.9%.
As for `CC(=O)c1cc2c(C)cc(=O)oc2cc1O`, the figure is 1.77%; as for `O=C(CCN1C(=O)/C(=C\c2ccccc2)SC1=S)N1CCOCC1`, 16.3%.
As for `CCCCOC(=O)C(C)Oc1ccc(=O)n(-c2ccccc2)n1` (stereo not shown), the figure is 4.44%; as for `O=C(NC1CCN(Cc2ccccc2)CC1)C(NS(=O)(=O)c1cccc2nsnc12)c1ccccc1` (stereo not shown), -44.6%; as for `COc1ccc(OC)c(NC(=O)CCNC(=O)c2ccco2)c1`, 19.3%.
As for `O=[N+]([O-])c1ccc(Nc2ccc3ccccc3c2)nc1`, the “hERG current change (%, negative = inhibition) at 10uM” value is -8.76%.
As for `CCn1c(COc2cccc(C)c2C)nnc1SCC(=O)N1CCN(c2ccc(OC)cc2)CC1`, the “hERG current change (%, negative = inhibition) at 10uM” value was -5.31%.
Then `O=C(NNS(=O)(=O)c1ccccc1[N+](=O)[O-])c1cccc(Br)c1`, with -6.26%; and `COc1ccccc1CN1C[C@@H]2C[C@@H](c3ccc(C)cc3)N3CCC[C@@]23C1=O`, with -43.6%; and `O=C(Cc1ccc(Cl)cc1)Nc1ncccn1`, with 11.1%.
Then `C=CCN1C(=O)CN=C1Nc1cccc(C)c1.Cl`, with 10.9%; and `C=CCn1c(SCC(=O)Nc2ccc(F)cc2)nnc1-c1cnccn1`, with -58.9%; and `O=C(CCCc1ccccc1)NCc1ccccc1`, with 15%.
As for `O=C(NCCc1ccccc1)C(=O)Nc1ccc([N+](=O)[O-])cc1`, the figure is -2.37%.
For the compound `CCOC(=O)C1=C(O)/C(=C\c2ccc(CNS(=O)(=O)c3ccc(Br)cc3)o2)N=C1C`, the “hERG current change (%, negative = inhibition) at 10uM” value is given as 15.7%.
As for `CCC(c1nnc(SCC(=O)NCC2CCCO2)n1Cc1ccccc1)N(C)C` (stereo not shown), the figure is -4.58%; as for `COc1ccc(N2CCN(CC(=O)NC(=O)NC(C)(C)C)CC2)cc1`, 15.6%; as for `COc1ccccc1/C=C1\CCC(C2CCCC2)C1=O` (stereo not shown), 5.36%.
Consider `O=C(NC1CC2CCCC(C1)N2Cc1cccs1)c1ccc([N+](=O)[O-])cc1` (stereo not shown), for which the “hERG current change (%, negative = inhibition) at 10uM” value was -84.3%.
As for `N#Cc1ccc(NC(=O)CCc2ccc(S(=O)(=O)N3CCOCC3)cc2)cc1`, the figure is -51.5%; as for `O=C(CCC(=O)Nc1ccccc1Cl)NNS(=O)(=O)c1ccc(Cl)cc1`, 3.75%.
In the case of `COc1ccccc1CN1CCNC(=O)C1CC(=O)NC1Cc2ccccc2C1` (stereo not shown), the “hERG current change (%, negative = inhibition) at 10uM” value is -4.81%.
Then `O=C(/C=C/NNC(=O)c1ccc(Br)cc1)c1ccccc1`, with 8.51%; and `Cc1[nH]c(-c2ccc(F)cc2)cc1C(=O)N1CCN(c2ccccc2)CC1`, with -58.8%; and `OC(COC(c1ccc(Cl)cc1)c1ccc(Cl)cc1)CN1CCCC1` (stereo not shown), with -77.4%.
With `COc1ccccc1C(=O)NC(=O)OCCn1c(C)cnc1[N+](=O)[O-]`, the “hERG current change (%, negative = inhibition) at 10uM” value is listed as -7.81%.
For the compound `CC1(NC(=O)/C=C/c2nc3ccccc3s2)CCS(=O)(=O)C1` (stereo not shown), the “hERG current change (%, negative = inhibition) at 10uM” value came out at 3.96%.
On to `CS(=O)(=O)N1CCN(Cc2cc(=O)n3ccsc3n2)CC1`, for which the “hERG current change (%, negative = inhibition) at 10uM” value stood at 19.1%.
In the case of `O=C(NN=C(Cc1ccccc1)Cc1ccccc1)c1ccccc1O`, the “hERG current change (%, negative = inhibition) at 10uM” value is given as 6.32%.
